One assay relates to reserpine hypothermia. Kind of assay: counteracting reserpine hypothermia. The conditions noted are these: Mus musculus, po, read-out: minimum oral dose effective in counteracting reserpine hypothermia.
For assay [1], the system named is hypothermia induced by apomorphine. Kind of assay: inhibition of hypothermia induced by apomorphine (apomorphine test). The conditions noted are these: Mus musculus, read-out: ED-50 in counteracting the hypothermia induced by apomorphine.

Each structure is given as a SMILES string. Where two headings read alike, the source gives them in different places.

For `CN(C)CCCN1c2ccccc2N(C)S(=O)(=O)c2ccccc21` [reference compound], in the assay with reserpine hypothermia, the minimal effective dose amounted to 100 mg/kg.
With `CN(C)CC(=O)N1c2ccccc2N(C)S(=O)(=O)c2ccccc21` [Compound 1, 6-Methyl-6,11-dihydro-11-(N,N-dimethylaminoacetyl)dibenzo[c,f][1,2,5]thiadiazepine 5,5-dioxide], the ED50 came to 4.7 mg/kg in assay [1] (ip) and 13.5 mg/kg in assay [1] (po). In addition, the minimal effective dose in the assay on reserpine hypothermia was 25 mg/kg.

These data come from patent US5011833A, “Novel derivatives of 6,11-dihydro-dibenzo(C,F)(1,2,5)-thiadiazepine 5,5-dioxide, salts thereof and appropriate processes for the preparation thereof” (A. Menarini Industrie Farmaceutiche Riunite, priority 1988, dated 1991).
